Measured values as given in patent CN113583116A.

Biological target: SARS-CoV-2 受体结合域RBD蛋白 RBD-His (SARS-CoV-2)

B1: 小鼠单克隆抗体36H6 (antibody, V domains shown)
VH: EVQLQQSGPELVNPGASVKISCKTSGYTFTEYTMHWVKQSHGKSLEWIGGINPNNGDTIYNQKFKGKATLTVDKSSSTAYMELRSLTSEDSAVFYCAREGDYYVSSYGYWGQGTTLTVSS
VL: [not shown - about 120 residues]
- Kd: 5.84 nM
